The campaign covered roughly 1,200 compounds. About 30 (2%) were called active. Another 23% or so got no clear call; they are omitted. Calls follow the shape of the dose curve; as a rule, active = well fitted inhibition curve with a large enough effect; inconclusive = small, poorly fitted or top-dose-only effect; inactive = flat fitted curve, though single readings scatter. The list shows a part of the results.
Biological target: Single-stranded DNA cytosine deaminase (Homo sapiens) (UniProt Q9GZX7)
Chain of UniProt Q9GZX7 (Q9GZX7 whole entry, looked up): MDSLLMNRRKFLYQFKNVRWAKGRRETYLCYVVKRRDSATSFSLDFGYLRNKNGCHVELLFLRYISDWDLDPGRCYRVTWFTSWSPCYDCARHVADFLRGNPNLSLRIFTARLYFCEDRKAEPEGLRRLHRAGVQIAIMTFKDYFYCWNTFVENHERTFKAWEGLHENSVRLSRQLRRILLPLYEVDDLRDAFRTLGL
Assay: Confirmatory qHTS assay for inhibitors of Activation Induced Cytidine Deaminase (AID): AID signals
Settings: recombinant AID, FRET deamination/UDG coupled fluorescence, 4 h; series mostly up to 115 µM; activity, negative = inhibition: at the top concentration
Outline: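 Read 1 (AID) was measured at 540 ex/590 em after a 30 min NaOH step. The reaction was AID (1 uM, 4/3x stock) with UDG, compound at final 7.32 nM - 114 uM for 10 min, then DJC20/DJC23 substrate for 4 hr at room temperature. A UDG read at 560/665 serves as counterscreen.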
% is scaled to controls: 0 for no effect and ±100 for the full control effect.

activity, negative = inhibition, inactive:
CCOc1ccc(C(=O)c2cn(CC(=O)Nc3ccc(OC)cc3)c3cc4c(cc3c2=O)OCCO4)cc1 -22.8%
COc1cccc(CNC(=O)Cn2c(=O)ccc3cc(S(=O)(=O)N4CCC(C)CC4)ccc32)c1 -19.1%
CCOc1ccc(CCNc2ncnc3onc(-c4ccc(Cl)cc4)c23)cc1OCC -10%
O=C(CCS(=O)(=O)c1nc(-c2cccs2)cc(C(F)(F)F)n1)Nc1ccc(OC(F)(F)F)cc1 3.71%
CCOC(=O)C1CCN(c2nc3c(S(=O)(=O)c4ccccc4)nnn3c3ccsc23)CC1 -6.88%
Cc1ccc2onc(CC(=O)N3CCN(c4cc(Cl)ccc4C)CC3)c2c1 -15.5%
CCc1ccc(-n2c(=O)c3c4c(sc3n(CC(=O)N3CCCCC3CC)c2=O)CCC4)cc1 (stereo not drawn) -15.2%
Cc1nc2nc(SCC(=O)NC3CCCCC3)nn2c(C)c1Cc1ccccc1Cl -9.71%
CCc1ccccc1-n1c(C)nc2cc(C(=O)NCCc3ccc(Cl)cc3)ccc21 -11.6%
CN(C)c1ccc(CN(Cc2ccco2)C(=O)c2ccc(C(C)(C)C)cc2)cc1 -6.01%
CC(C)(C)OC(=O)N1CCC(c2c(C(=O)NCc3cccc(Cl)c3)cnn2-c2ccc(F)cc2)CC1 -19.3%
COc1cccc(Cn2cc(C(=O)c3ccccc3)c(=O)c3cc4c(cc32)OCO4)c1 -28.1%
COc1ccc(OC)c(NC(=O)Cn2c(=O)cc(-c3ccccc3)c3c(C)nn(C)c32)c1 -20%
Cc1cccc(N2CCN(C(=O)CS(=O)(=O)Cc3nc(-c4ccccc4C)oc3C)CC2C)c1 (stereo not drawn) 2.05%
Cc1cc(C)cc(OCC(=O)NCC(c2ccc(Cl)cc2)N2CCCCC2)c1 (stereo not drawn) -3.85%
CCc1ccc(CN(Cc2ccco2)C(=O)c2ccccc2Cl)cc1 -14.8%
Cc1cccc(Cn2c(SCc3ccc(C(=O)N4CCCCCC4)cc3)nc3ccncc32)c1 -11%
O=C(CSc1nnc(-c2ccccc2Cl)o1)N1CCCc2ccccc21 -10.1%
CCOc1ccc2nc(Cl)c(C3CC(c4ccc(C)cc4)=NN3C(=O)CCC(=O)O)cc2c1 (stereo not drawn) 3.08%
Cc1ccc(Cl)cc1N1CCN(C(=O)c2ccc3c(Cl)c4c(nc3c2)CCCC4)CC1 15.5%
COc1cccc(-c2nc(CS(=O)(=O)CC(=O)N3CCN(c4ccccc4)CC3)c(C)o2)c1 0.697%
COc1ccc(-n2nc3c(N4CCC(C(=O)N5CCC(C)CC5)CC4)nnc(C)c3c2C)cc1 2.89%
CCc1ccc(OCC(=O)N(Cc2ccc(C(C)C)cc2)C2CCS(=O)(=O)C2)cc1 (stereo not drawn) -7.21%
CCc1nn(CCCC(=O)NCc2cc(Br)ccc2OC)c(=O)c2cc3occc3n12 -12.5%
CN(C(=O)c1ccc2c(c1)N(Cc1ccc(F)cc1)C(=O)c1ccccc1S2(=O)=O)C1CCCCC1 -5.42%
Cc1cccc(N2CCN(C(=O)c3cccn3-c3nnc(N4CCCCC4)s3)CC2)c1C -5.86%
Cc1ccc(Cl)cc1N1CCN(C(=O)c2nn(C)c3c2CS(=O)(=O)c2ccccc2-3)CC1 -15.1%
CCOc1ccc(S(=O)(=O)c2c(C(=O)c3ccc(C)c(C)c3)cnc3ccccc23)cc1 -4.73%
CCCCCSc1nc2sc3c(c2c(=O)n1-c1ccccc1)CCN(C(C)=O)C3 -26.7%
Cc1ccc(Cn2c(SCc3ccc(C(=O)N4CCCCCC4)cc3)nc3ccncc32)cc1 -6.5%
COc1ccc(S(=O)(=O)N(CC(=O)Nc2cccc(C(F)(F)F)c2)c2ccc(C)cc2)cc1 -5.83%
CCOC(=O)C1=C(CN2CCN(c3ccccc3F)CC2)NC(=O)NC1c1ccc(Cl)cc1 (stereo not drawn) -9.34%
O=C(Nc1cccc(Cl)c1)c1c(NC(=O)C(F)(F)F)sc2c1CCCC2 -14.6%
CCc1ccc2oc(C(=O)NCC(c3ccc(Cl)cc3)N3CCOCC3)c(C)c2c1 (stereo not drawn) -9.17%
Cc1oc(-c2ccccc2Cl)nc1CS(=O)CC(=O)N1CCN(c2cccc(C(F)(F)F)c2)CC1 (stereo not drawn) -3.5%
Cc1cccc(N2CCN(C(=O)c3sc4nc5n(c(=O)c4c3C)CCC5)CC2C)c1 (stereo not drawn) -8.89%
CCCc1cnc2c(c1SCc1cccc(C)c1)c(=O)n(C)c(=O)n2C -13.2%
Cc1ccc(-n2ncc(C(=O)NCc3ccc4c(c3)OCO4)c2C2CCN(C(=O)OC(C)(C)C)CC2)c(C)c1 -16.4%
CN1CCN(C(=O)c2ccc3c(c2)N(Cc2ccc(C(F)(F)F)cc2)C(=O)c2ccccc2S3)CC1 -7.94%
Cc1cc(C)cc(N2C(=O)CSC23C(=O)N(Cc2c(F)cccc2Cl)c2ccccc23)c1 (stereo not drawn) -10.2%
Cc1ccc(C)c(CN2C(=O)c3ccccc3S(=O)c3ccc(C(=O)N4CCCCC4)cc32)c1 (stereo not drawn) -1.88%
CCOC(=O)c1c(C)n(-c2ccccc2)c2ccc(OC(=O)c3ccccc3NC(=O)C(C)(C)C)cc12 11.3%
Cc1ccc(N(Cc2cccs2)C(=O)COc2cccc(C)c2)cc1 -20.2%
